From a collection of fitness landscapes (doi:10.1038/s41467-024-54723-y)
In all, about 18,000 sequences were measured (“TetR repression strength (sort-seq, GFP reporter)”: median about 0.23, highest 2% from about 0.68 on). The list shows a part of the results.

Target: TetR (class B, Tn10) (UniProt P04483)
Assay: TetR repression strength (sort-seq, GFP reporter) (relative to tetO2 = 1); higher = stronger repression
Details: E. coli
Procedure, shortened: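 E. coli SIG10-MAX carried a low-copy plasmid library with eight randomized operator positions between a constitutive promoter and sfGFP, with TetR constitutively expressed. Cells grew 5 h at 37 °C in LB with 50 µg/mL chloramphenicol, then 10^6 cells were FACS-sorted into 13 fluorescence bins, each Illumina-sequenced. Repression strength is the top bin index plus one minus the read-weighted mean bin, divided by the wild-type operator value. Three independent transformations; variants with ≥30 reads in all replicates and CV ≤0.5 were averaged.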

UniProt P04483, sequence (P04483 whole entry): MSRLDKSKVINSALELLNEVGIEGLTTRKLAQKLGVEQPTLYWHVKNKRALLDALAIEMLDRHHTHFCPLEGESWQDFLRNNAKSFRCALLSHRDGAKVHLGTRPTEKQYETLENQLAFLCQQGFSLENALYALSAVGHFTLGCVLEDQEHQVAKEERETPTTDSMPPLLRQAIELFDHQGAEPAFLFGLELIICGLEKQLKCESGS

Sequence | TetR repression strength
TCCCGCGGAGTGGGAGAGA | 0.0921
TCCCGAGAAGTTCAAGAGA | 0.311
TCCCACATAGTGGTCGAGA | 0.138
TCCCCTCGAGTAAACGAGA | 0.335
TCCCGGATAGTTGGAGAGA | 0.393
TCCCACTGAGTTGTGGAGA | 0.162
TCCCCGTTAGTGCAGGAGA | 0.258
TCCCTGCCAGTAGGCGAGA | 0.207
TCCCGGTTAGTGTGGGAGA | 0.217
TCCCAACGAGTCCAGGAGA | 0.135
TCCCGTCAAGTGCTGGAGA | 0.346
TCCCTGTCAGTAGCAGAGA | 0.278
TCCCTTGGAGTCGAAGAGA | 0.107
TCCCTCGGAGTAGCGGAGA | 0.221
TCCCCCAGAGTGAGCGAGA | 0.0671
TCCCAGCTAGTTGTAGAGA | 0.216
TCCCCACAAGTCGGGGAGA | 0.182
TCCCAAGAAGTGCAAGAGA | 0.383
TCCCAGTGAGTAGAAGAGA | 0.282
TCCCGGGTAGTCGCTGAGA | 0.251
TCCCCGGTAGTGGGTGAGA | 0.164
TCCCTCGCAGTTGTTGAGA | 0.0296
TCCCTCTAAGTACGCGAGA | 0.223
TCCCTCGCAGTAGCGGAGA | 0.45
TCCCGCGAAGTCACCGAGA | 0.0691
TCCCTCAAAGTGCGTGAGA | 0.296

Sequence | TetR repression strength
TCCCGTATAGTTATCGAGA | 0.0468
TCCCAATTAGTAACGGAGA | 0.0366
TCCCTGTCAGTGACTGAGA | 0.368
TCCCAGGGAGTAGAAGAGA | 0.278
TCCCTGTTAGTGTTGGAGA | 0.228
TCCCGTCAAGTGATTGAGA | 0.233
TCCCAACAAGTGCACGAGA | 0.343
TCCCGCGGAGTAAGTGAGA | 0.111
TCCCGAGGAGTCGTCGAGA | 0.235
TCCCTCACAGTCAGAGAGA | 0.201
TCCCGGTTAGTGTAAGAGA | 0.253
TCCCTAGCAGTGGGAGAGA | 0.151
TCCCTCGAAGTGCTAGAGA | 0.246
TCCCCGGCAGTATTCGAGA | 0.167
TCCCCACCAGTAGTAGAGA | 0.29
TCCCGAAAAGTCGTGGAGA | 0.339
TCCCTAAAAGTCCATGAGA | 0.193
TCCCTTTGAGTCTTGGAGA | 0.199
TCCCACGGAGTTAGGGAGA | 0.125
TCCCTCTGAGTACGTGAGA | 0.313
TCCCTTCAAGTGTGGGAGA | 0.387
TCCCGCTCAGTGACAGAGA | 0.715
TCCCGGGGAGTCGTGGAGA | 0.26
TCCCGTTTAGTGTATGAGA | 0.207
TCCCGTCCAGTAGGTGAGA | 0.181
TCCCCACAAGTTGGCGAGA | 0.2

Sequence | TetR repression strength
TCCCCTATAGTATAGGAGA | 0.0691
TCCCGGGCAGTTACAGAGA | 0.235
TCCCGCCAAGTGGGGGAGA | 0.395
TCCCTACCAGTTGTTGAGA | 0.168
TCCCGGCAAGTGTCGGAGA | 0.0373
TCCCCTAGAGTCCGCGAGA | 0.332
TCCCTTTTAGTCTGTGAGA | 0.248
TCCCTGTTAGTGGTAGAGA | 0.404
TCCCGCCGAGTTTGGGAGA | 0.184
TCCCGTGTAGTGGGCGAGA | 0.242
TCCCAGGAAGTTCCGGAGA | 0.0651
TCCCTGTCAGTCACCGAGA | 0.664
TCCCTCGGAGTAGTAGAGA | 0.115
TCCCGTAGAGTCAAGGAGA | 0.412
TCCCTTCGAGTTCGGGAGA | 0.176
TCCCGATGAGTGCTCGAGA | 0.361
TCCCCCTGAGTGCGCGAGA | 0.332
TCCCTTCGAGTCGCCGAGA | 0.303
TCCCAGAGAGTGCGTGAGA | 0.0296
TCCCGCTGAGTCGACGAGA | 0.264
TCCCGCGGAGTGCTTGAGA | 0.186
TCCCATCGAGTCAATGAGA | 0.0272
TCCCTCTCAGTGCAGGAGA | 0.182
TCCCGTCCAGTGCAGGAGA | 0.191
TCCCAACAAGTGTGTGAGA | 0.207
TCCCGCGTAGTGTGGGAGA | 0.207

Sequence | TetR repression strength
TCCCAATGAGTGGGAGAGA | 0.341
TCCCACCAAGTCTCTGAGA | 0.207
TCCCGCGAAGTGGAAGAGA | 0.256
TCCCCGATAGTATCGGAGA | 0.119
TCCCTAATAGTCTTCGAGA | 0.623
TCCCCGCAAGTTAAAGAGA | 0.294
TCCCCCCGAGTGCGGGAGA | 0.215
TCCCTGAGAGTGACTGAGA | 0.216
TCCCATAGAGTGTGCGAGA | 0.125
TCCCTATGAGTGGTTGAGA | 0.13
TCCCCGGAAGTTGCTGAGA | 0.292
TCCCCGACAGTAGGAGAGA | 0.107
TCCCGTGGAGTAAGTGAGA | 0.314
TCCCAGATAGTTGCTGAGA | 0.129
TCCCGTCAAGTGAGTGAGA | 0.14
TCCCCATAAGTGCGGGAGA | 0.392
TCCCATCTAGTACTAGAGA | 0.266
TCCCGATGAGTCCCCGAGA | 0.145
TCCCGTAGAGTCGAGGAGA | 0.103
TCCCCTCAAGTCAGGGAGA | 0.104
TCCCGAGAAGTTGGCGAGA | 0.222
TCCCGATCAGTGTATGAGA | 0.168
TCCCCTTGAGTGTGAGAGA | 0.247
TCCCGGGGAGTGAAAGAGA | 0.226
TCCCGTGCAGTCGTGGAGA | 1
TCCCCGGTAGTTCCTGAGA | 0.186

Sequence | TetR repression strength
TCCCGCTTAGTCATGGAGA | 0.0661
TCCCGGCGAGTATCTGAGA | 0.309
TCCCGAGAAGTCGGAGAGA | 0.222
TCCCGTATAGTAGCGGAGA | 0.072
TCCCTTCTAGTTATGGAGA | 0.32
TCCCTGGCAGTTGCTGAGA | 0.219
TCCCTATTAGTCAAAGAGA | 0.195
TCCCAGAGAGTGTCAGAGA | 0.097
TCCCTCACAGTTGGGGAGA | 0.125
TCCCTTCTAGTTCACGAGA | 0.413
TCCCGCGCAGTATCGGAGA | 0.207
TCCCTGCTAGTGCTAGAGA | 0.258
TCCCGATCAGTAAGGGAGA | 0.097
TCCCTCCAAGTCGTCGAGA | 0.276
TCCCCCTCAGTAGACGAGA | 0.28
TCCCGGGCAGTGGGCGAGA | 0.253
TCCCCTGTAGTGCCTGAGA | 0.256
TCCCTCATAGTAAGTGAGA | 0.276
TCCCTGTGAGTGAACGAGA | 0.149
TCCCGGCAAGTGGGGGAGA | 0.23
TCCCTGTCAGTTGCAGAGA | 0.468
TCCCAGCGAGTCTCGGAGA | 0.29
TCCCATGAAGTTTAGGAGA | 0.123
TCCCTGTAAGTAAGCGAGA | 0.27
TCCCACATAGTTAAGGAGA | 0.274
TCCCGCGAAGTGGTAGAGA | 0.184

Sequence | TetR repression strength
TCCCACATAGTGAAGGAGA | 0.227
TCCCGTAAAGTTCCGGAGA | 0.38
TCCCCCATAGTTCACGAGA | 0.46
TCCCAGTCAGTGATCGAGA | 0.322
TCCCAGAGAGTTCTCGAGA | 0.174
TCCCTGCGAGTTCAGGAGA | 0.122
TCCCCGGGAGTCGTAGAGA | 0.195
TCCCATGAAGTGAAAGAGA | 0.138
TCCCCGGCAGTCCCGGAGA | 0.416
TCCCGTCAAGTAAGCGAGA | 0.199
TCCCTGCGAGTCGGGGAGA | 0.217
TCCCGGACAGTGGACGAGA | 0.0721
TCCCACGGAGTGCAGGAGA | 0.194
TCCCGGCAAGTCTCGGAGA | 0.102
TCCCTGCGAGTAGGAGAGA | 0.0666
TCCCGTACAGTCCATGAGA | 0.158
TCCCATATAGTTGTAGAGA | 0.454
TCCCCGCAAGTCGGAGAGA | 0.258
TCCCAGGGAGTTTACGAGA | 0.183
TCCCTAGGAGTGGGGGAGA | 0.202
TCCCTGAGAGTCGTAGAGA | 0.18
TCCCATCTAGTACCTGAGA | 0.357
TCCCTGCGAGTGTCGGAGA | 0.255
TCCCCTAGAGTGTGTGAGA | 0.147
TCCCACCGAGTGGATGAGA | 0.125
TCCCCACGAGTTCCGGAGA | 0.267

Sequence | TetR repression strength
TCCCTGCGAGTTGTTGAGA | 0.0124
TCCCGTGTAGTGGATGAGA | 0.0847
TCCCCAGAAGTTGTGGAGA | 0
TCCCTGGAAGTCGGTGAGA | 0.317
TCCCCGGTAGTTGAAGAGA | 0.343
TCCCGATGAGTCTGCGAGA | 0.339
TCCCAGAAAGTGCCCGAGA | 0.136
TCCCAGTCAGTTGGGGAGA | 0.23
TCCCACATAGTTGGAGAGA | 0.254
TCCCTCGAAGTGGCGGAGA | 0.391
TCCCCATGAGTGTCCGAGA | 0.415
TCCCGAAGAGTAAGTGAGA | 0.207
TCCCCGCTAGTGCGGGAGA | 0.343
TCCCACGCAGTCATTGAGA | 0.301
TCCCGTACAGTTGGTGAGA | 0.233
TCCCGGTGAGTGAAGGAGA | 0.145
TCCCGACAAGTAGATGAGA | 0.147
TCCCCTTCAGTGCTAGAGA | 0.416
TCCCGAGTAGTAGGGGAGA | 0.0701
TCCCGGGGAGTAGAAGAGA | 0.0431
TCCCCTTAAGTTATAGAGA | 0.263
TCCCTTAAAGTTGGGGAGA | 0
TCCCTCCAAGTAGTGGAGA | 0.154
TCCCGAAGAGTCGGGGAGA | 0.212
TCCCCATAAGTATGGGAGA | 0.0642
TCCCTGAAAGTGGAGGAGA | 0.309

Sequence | TetR repression strength
TCCCGTTCAGTTCCTGAGA | 0.705
TCCCCGTTAGTTCTCGAGA | 0.167
TCCCGTTGAGTGCGAGAGA | 0.133
TCCCGTCAAGTTGTCGAGA | 0.135
TCCCAGGGAGTAAGAGAGA | 0.256
TCCCGTGTAGTGTACGAGA | 0.213
TCCCACCGAGTCAAGGAGA | 0.328
TCCCAAGGAGTTGGTGAGA | 0.17
TCCCAAACAGTCTATGAGA | 0.433
TCCCCGAGAGTTCGTGAGA | 0.111
TCCCGTAGAGTGGGGGAGA | 0.142
TCCCTGTTAGTTATAGAGA | 0.494
TCCCATAGAGTCTACGAGA | 0.202
TCCCACGGAGTCCTCGAGA | 0.535
TCCCTGCTAGTATGTGAGA | 0.461
TCCCGCGGAGTGAAGGAGA | 0.174
TCCCGTTCAGTAGTCGAGA | 0.615
TCCCTCTGAGTCGAAGAGA | 0.0537
TCCCGTTAAGTAAAAGAGA | 0.276
TCCCTGGGAGTGGGAGAGA | 0.157
TCCCTACTAGTCCAAGAGA | 0.385
TCCCCCCTAGTCGGGGAGA | 0.59
